# The list shows a part of the results.
# B1: FimA-N1 (Actinomyces oris) (protein)
# chain: MHHHHHHSSGVDLGTENLYFQSNATETPNYGNIKTDATGSLVIHKHLTGGGKDIGTPTGTAQNADDKGPAVEGVVFTAYPITDINLKDPAGWDTISNLSRTGVPDSACANPAAPTLGAHQFGTPKVSPATTKEGLATITEMPVQAYLVCETTTPGDIVQKAKPFVVTIPHPNTAAGADGQWIYDVNVYPKNEAIDVDKTIQAQK
# Key:
# Test in all cases: glycan array binding signal (z-score within array); higher = stronger binding
# Conditions in all cases: glycan notation: IUPAC condensed, linker removed
# Gal(b1-2)Gal = molecular target: Gal(b1-2)Gal
# In short: (§1)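 The Consortium for Functional Glycomics database supplied 3228 glycan arrays, of which those lacking an available protein sequence were dropped. The binding signal, a within-array Z-score, was averaged across arrays of the same protein sequence and across linkers. Negative scores can be read as non-binding.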
# Gal(b1-3)Gal = molecular target: Gal(b1-3)Gal
# In short: as §1
# Gal(b1-3)Gal(b1-4)GlcNAc = molecular target: Gal(b1-3)Gal(b1-4)GlcNAc
# In short: as §1
# Gal(b1-3)GalNAc = molecular target: Gal(b1-3)GalNAc
# In short: as §1
# [1] = molecular target: Gal(b1-3)GalNAc(a1-3)[Fuc(a1-2)]Gal(b1-4)Glc
# In short: as §1
# [2] = molecular target: Gal(b1-3)GalNAc(a1-3)[Fuc(a1-2)]Gal(b1-4)GlcNAc
# In short: as §1
# Gal(b1-3)GalNAc(b1-3)Gal = molecular target: Gal(b1-3)GalNAc(b1-3)Gal
# In short: as §1
# [3] = molecular target: Gal(b1-3)GalNAc(b1-3)Gal(a1-4)Gal(b1-4)Glc
# In short: as §1
# [4] = molecular target: Gal(b1-3)GalNAc(b1-4)Gal(b1-4)Glc
# In short: as §1
# [5] = molecular target: Gal(b1-3)GalNAc(b1-4)[Neu5Ac(a2-3)]Gal(b1-4)Glc
# In short: as §1
# Gal(b1-3)GlcNAc = molecular target: Gal(b1-3)GlcNAc
# In short: as §1
# [6] = molecular target: Gal(b1-3)GlcNAc(a1-3)Gal(b1-4)GlcNAc
# In short: as §1
# [7] = molecular target: Gal(b1-3)GlcNAc(a1-6)Gal(b1-4)GlcNAc
# In short: as §1
# Gal(b1-3)GlcNAc(b1-2)Man = molecular target: Gal(b1-3)GlcNAc(b1-2)Man
# In short: as §1
# [8] = molecular target: Gal(b1-3)GlcNAc(b1-2)Man(a1-3)[Gal(b1-3)GlcNAc(b1-2)Man(a1-6)]Man(b1-4)GlcNAc(b1-4)GlcNAc
# In short: as §1
# [9] = molecular target: Gal(b1-3)GlcNAc(b1-2)Man(a1-3)[Gal(b1-3)GlcNAc(b1-2)Man(a1-6)]Man(b1-4)GlcNAc(b1-4)[Fuc(a1-6)]GlcNAc
# In short: as §1
# [10] = molecular target: Gal(b1-3)GlcNAc(b1-2)Man(a1-3)[GlcNAc(b1-4)][Gal(b1-3)GlcNAc(b1-2)Man(a1-6)]Man(b1-4)GlcNAc(b1-4)GlcNAc
# In short: as §1
# [11] = molecular target: Gal(b1-3)GlcNAc(b1-2)[Gal(b1-3)GlcNAc(b1-6)]Man(a1-6)[Gal(b1-3)GlcNAc(b1-2)Man(a1-3)]Man(b1-4)GlcNAc(b1-4)GlcNAc
# In short: as §1
# [12] = molecular target: Gal(b1-3)GlcNAc(b1-3)Gal(b1-3)GlcNAc
# In short: as §1
# [13] = molecular target: Gal(b1-3)GlcNAc(b1-3)Gal(b1-4)Glc
# In short: as §1
# [14] = molecular target: Gal(b1-3)GlcNAc(b1-3)Gal(b1-4)GlcNAc
# In short: as §1
# [15] = molecular target: Gal(b1-3)GlcNAc(b1-3)Gal(b1-4)GlcNAc(b1-2)Man(a1-3)[Gal(b1-3)GlcNAc(b1-3)Gal(b1-4)GlcNAc(b1-2)Man(a1-6)]Man(b1-4)GlcNAc(b1-4)GlcNAc
# In short: as §1
# [16] = molecular target: Gal(b1-3)GlcNAc(b1-3)Gal(b1-4)GlcNAc(b1-2)[Gal(b1-3)GlcNAc(b1-3)Gal(b1-4)GlcNAc(b1-6)]Man(a1-6)[Gal(b1-3)GlcNAc(b1-3)Gal(b1-4)GlcNAc(b1-2)Man(a1-3)]Man(b1-4)GlcNAc(b1-4)[Fuc(a1-6)]GlcNAc
# In short: as §1
# [17] = molecular target: Gal(b1-3)GlcNAc(b1-3)Gal(b1-4)GlcNAc(b1-3)Gal(b1-4)GlcNAc(b1-2)[Gal(b1-3)GlcNAc(b1-3)Gal(b1-4)GlcNAc(b1-3)Gal(b1-4)GlcNAc(b1-6)]Man(a1-6)[Gal(b1-3)GlcNAc(b1-3)Gal(b1-4)GlcNAc(b1-3)Gal(b1-4)GlcNAc(b1-2)Man(a1-3)]Man(b1-4)GlcNAc(b1-4)[Fuc(a1-6)]GlcNAc
# In short: as §1
# [18] = molecular target: Gal(b1-3)GlcNAc(b1-3)Gal(b1-4)GlcNAc(b1-6)[Gal(b1-3)GlcNAc(b1-3)]Gal(b1-4)Glc
# In short: as §1
# [19] = molecular target: Gal(b1-3)GlcNAc(b1-3)Gal(b1-4)[Fuc(a1-3)]GlcNAc
# In short: as §1
# [20] = molecular target: Gal(b1-3)GlcNAc(b1-3)Gal(b1-4)[Fuc(a1-3)]GlcNAc(b1-6)[Gal(b1-3)GlcNAc(b1-3)]Gal(b1-4)Glc
# In short: as §1
# [21] = molecular target: Gal(b1-3)GlcNAc(b1-3)GalNAc
# In short: as §1
# [22] = molecular target: Gal(b1-3)GlcNAc(b1-6)Gal(b1-4)GlcNAc
# In short: as §1
# [23] = molecular target: Gal(b1-3)GlcNAc(b1-6)GalNAc
# In short: as §1
# [24] = molecular target: Gal(b1-3)GlcNAc(b1-6)[Gal(b1-3)]GalNAc
# In short: as §1
# Gal(b1-3)GlcNAc6S = molecular target: Gal(b1-3)GlcNAc6S
# In short: as §1
# [25] = molecular target: Gal(b1-3)[Fuc(a1-4)]GlcNAc
# In short: as §1
# [26] = molecular target: Gal(b1-3)[Fuc(a1-4)]GlcNAc(b1-2)Man
# In short: as §1
# [27] = molecular target: Gal(b1-3)[Fuc(a1-4)]GlcNAc(b1-2)Man(a1-3)[Gal(b1-3)[Fuc(a1-4)]GlcNAc(b1-2)Man(a1-6)]Man(b1-4)GlcNAc(b1-4)[Fuc(a1-6)]GlcNAc
# In short: as §1
# [28] = molecular target: Gal(b1-3)[Fuc(a1-4)]GlcNAc(b1-3)Gal(b1-3)[Fuc(a1-4)]GlcNAc
# In short: as §1
# [29] = molecular target: Gal(b1-3)[Fuc(a1-4)]GlcNAc(b1-3)Gal(b1-4)[Fuc(a1-3)]GlcNAc
# In short: as §1
# [30] = molecular target: Gal(b1-3)[Fuc(a1-4)]GlcNAc(b1-6)GalNAc
# In short: as §1
# [31] = molecular target: Gal(b1-3)[GlcNAc(b1-6)]GalNAc
# In short: as §1
# [32] = molecular target: Gal(b1-3)[Neu5Ac(a2-6)]GalNAc
# In short: as §1
# [33] = molecular target: Gal(b1-3)[Neu5Ac(a2-6)]GlcNAc(b1-4)Gal(b1-4)Glc
# In short: as §1
# [34] = molecular target: Gal(b1-3)[Neu5Ac(b2-6)]GalNAc
# In short: as §1
# Gal(b1-4)Gal = molecular target: Gal(b1-4)Gal
# In short: as §1
# [35] = molecular target: Gal(b1-4)GalNAc(a1-3)[Fuc(a1-2)]Gal(b1-4)GlcNAc
# In short: as §1
# [36] = molecular target: Gal(b1-4)GalNAc(b1-3)[Fuc(a1-2)]Gal(b1-4)GlcNAc
# In short: as §1
binder,measurement,setting,value
B1,glycan array binding signal (z-score),Gal(b1-2)Gal,1.45
same,glycan array binding signal (z-score),Gal(b1-3)Gal,-0.179
same,glycan array binding signal (z-score),Gal(b1-3)Gal(b1-4)GlcNAc,-0.145
same,glycan array binding signal (z-score),Gal(b1-3)GalNAc,-0.2
same,glycan array binding signal (z-score),[1],-0.218
same,glycan array binding signal (z-score),[2],-0.448
same,glycan array binding signal (z-score),Gal(b1-3)GalNAc(b1-3)Gal,-0.35
same,glycan array binding signal (z-score),[3],0.526
same,glycan array binding signal (z-score),[4],-0.167
same,glycan array binding signal (z-score),[5],-0.373
same,glycan array binding signal (z-score),Gal(b1-3)GlcNAc,-0.36
same,glycan array binding signal (z-score),[6],-0.331
same,glycan array binding signal (z-score),[7],-0.128
same,glycan array binding signal (z-score),Gal(b1-3)GlcNAc(b1-2)Man,-0.223
same,glycan array binding signal (z-score),[8],-0.246
same,glycan array binding signal (z-score),[9],-0.504
same,glycan array binding signal (z-score),[10],0.813
same,glycan array binding signal (z-score),[11],3.13
same,glycan array binding signal (z-score),[12],-0.03
same,glycan array binding signal (z-score),[13],-0.392
same,glycan array binding signal (z-score),[14],-0.233
same,glycan array binding signal (z-score),[15],-0.401
same,glycan array binding signal (z-score),[16],-0.054
same,glycan array binding signal (z-score),[17],-0.226
same,glycan array binding signal (z-score),[18],-0.142
same,glycan array binding signal (z-score),[19],-0.121
same,glycan array binding signal (z-score),[20],-0.133
same,glycan array binding signal (z-score),[21],-0.102
same,glycan array binding signal (z-score),[22],-0.385
same,glycan array binding signal (z-score),[23],-0.346
same,glycan array binding signal (z-score),[24],-0.153
same,glycan array binding signal (z-score),Gal(b1-3)GlcNAc6S,0.102
same,glycan array binding signal (z-score),[25],-0.166
same,glycan array binding signal (z-score),[26],-0.442
same,glycan array binding signal (z-score),[27],0.322
same,glycan array binding signal (z-score),[28],-0.597
same,glycan array binding signal (z-score),[29],-0.268
same,glycan array binding signal (z-score),[30],-0.024
same,glycan array binding signal (z-score),[31],-0.29
same,glycan array binding signal (z-score),[32],-0.468
same,glycan array binding signal (z-score),[33],-0.004
same,glycan array binding signal (z-score),[34],-0.375
same,glycan array binding signal (z-score),Gal(b1-4)Gal,-0.308
same,glycan array binding signal (z-score),[35],-0.457
same,glycan array binding signal (z-score),[36],-0.306

# Source: the supplement of paper PMC8728848
